Measured values: PubChem BioAssay AID1030 (National Center for Advancing Translational Sciences (NCATS), 2008)
Among all 220,000 compounds or so, about 16,000 (7.3%) were called active. The inconclusive results got no clear call from the source; some entries with a clear call stand among them for comparison. Calls follow the shape of the dose curve; as a rule, active = well fitted inhibition curve with a large enough effect (not every such curve was filed as active); inconclusive = small, poorly fitted or top-dose-only effect, or another doubt; inactive = no such curve, though single readings can be large or run the other way. Potencies of inconclusive entries are left out as doubtful fits.
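For activity, negative = inhibition in this document: plate controls were no enzyme wells and a reference inhibitor.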
Potency is read from the fitted curve at half-maximal effect; tags tell the direction and shape of the fitted curve.

Each compound was assayed against Aldehyde dehydrogenase 1A1 (Homo sapiens) (UniProt P00352) (assay: qHTS Assay for Inhibitors of Aldehyde Dehydrogenase 1 (ALDH1A1)). Settings: Purified ALDH1A1, NADH fluorescence, propionaldehyde substrate; series mostly up to 75.3 µM; activity, negative = inhibition: at the top concentration.
UniProt P00352, sequence (P00352 whole entry, looked up): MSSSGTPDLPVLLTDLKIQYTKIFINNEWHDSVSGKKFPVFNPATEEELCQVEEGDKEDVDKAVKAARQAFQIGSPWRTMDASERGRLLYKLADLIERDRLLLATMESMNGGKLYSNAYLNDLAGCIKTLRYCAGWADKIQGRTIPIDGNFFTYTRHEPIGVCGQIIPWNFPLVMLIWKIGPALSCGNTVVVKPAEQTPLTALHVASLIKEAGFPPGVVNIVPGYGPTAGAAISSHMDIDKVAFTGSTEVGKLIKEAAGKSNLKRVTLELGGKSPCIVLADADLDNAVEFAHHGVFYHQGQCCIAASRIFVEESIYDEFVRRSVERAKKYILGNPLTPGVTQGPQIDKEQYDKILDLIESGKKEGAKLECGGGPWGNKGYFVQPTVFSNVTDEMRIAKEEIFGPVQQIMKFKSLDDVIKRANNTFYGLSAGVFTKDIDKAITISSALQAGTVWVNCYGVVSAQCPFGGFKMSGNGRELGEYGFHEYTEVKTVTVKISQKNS
With `Cn1cc(/C=N/n2cnc3sc4c(c3c2=O)CCCC4)c2ccccc21` the Potency was inconclusive [inhibitor, single point]. For `C=CCN(CC=C)CC(O)CN(c1cc([N+](=O)[O-])ccc1OC)S(=O)(=O)c1ccccc1` (stereo not given), the “activity, negative = inhibition” value was inactive: -1.3%. In the case of `O=C(CCCCCN1C(=O)CCC1=O)Nc1ccc(Cl)c(C(F)(F)F)c1`, the “activity, negative = inhibition” value is reported as inactive: -2.68%. With `O=C1c2ccccc2C(Nc2ccc3c(c2)OCCO3)N1c1ccc(Cl)cn1` (stereo not given) the Potency was inconclusive [inhibitor, single point]. For `Cc1ccc(C(NC(=O)N2CCCCC2)=C(Cl)Cl)cc1F`, the Potency was active: 0.112 µM. `COc1ccccc1N1C(=O)C2C(c3ccccc3F)NN(C(=O)c3ccc(C)cc3)C2C1=O` (stereo not given) was tested, and the “activity, negative = inhibition” value was inactive: 8.45%. For `CC(=O)N1CCN2C(=O)C1CCCC(=O)c1cc(C(C)C)ccc12` (stereo not given), the Potency was inconclusive [inhibitor, single point]. In the case of `N/C(=N\OC(=O)c1cc(-c2ccccc2)nc2ccccc12)c1ccccn1`, the Potency is reported as inconclusive [inhibitor, single point]. In the case of `O=C(COc1ncnc2sccc12)N1CCN(S(=O)(=O)c2ccc(Cl)cc2)CC1`, the Potency is reported as inconclusive [inhibitor, single point]. In the case of `Cc1ccc(NC(=O)CC(O)(C(F)(F)F)C(F)(F)F)cc1`, the “activity, negative = inhibition” value is reported as inactive: 14.4%. In the case of `CCn1c(SCC(=O)Nc2ccc(S(=O)(=O)Nc3onc(C)c3C)cc2)nnc1-c1ccccc1`, the Potency is reported as inconclusive [inhibitor, single point]. For `O=C(NCc1n[nH]c(=S)n1Cc1ccccc1)c1ccc(Cl)cc1Cl`, the Potency was active: 22.4 µM. With `CCOc1ccc2nc(NC(=O)CSC3=NCCS3)sc2c1` the Potency was active: 25.1 µM. With `O=C(Nc1nccs1)c1ccc(N2C(=O)C3CCCCC3C2=O)cc1` (stereo not given) the Potency was inconclusive [inhibitor, partial curve]. In the case of `COc1ccc(-c2ccc(-c3nnc(-c4cc(OC)ccc4OC)o3)cc2)cc1`, the Potency is reported as inconclusive [inhibitor, partial curve]. With `Cc1cc(C)nc(/N=C(\N)Nc2ccccc2-c2ccccc2)n1` the “activity, negative = inhibition” value was inactive: 8.32%. For `CCn1c2ccccc2c2cc(/C=N/n3cn[nH]c3=S)ccc21`, the Potency was active: 22.4 µM. For `O=C(NCC1CCCO1)c1ccc2c(=O)n(-c3ccccc3)c(=S)[nH]c2c1` (stereo not given), the Potency was inconclusive [inhibitor, full curve]. In the case of `CN1C2C=C3C(C#N)=C(N)C(C#N)(C#N)[C@H](c4c(F)cccc4F)[C@H]3C1CC2` (stereo not given in full), the Potency is reported as inconclusive [inhibitor, single point]. For `CC(C)(C)n1nnnc1C(c1ccncc1)N1CCN(c2ccc(O)cc2)CC1` (stereo not given), the Potency was inconclusive [inhibitor, partial curve, poor fit]. With `COC(=O)c1sc(NC(=O)COc2ccccc2)nc1C` the “activity, negative = inhibition” value was inactive: -16.3%. In the case of `COC(=O)c1cccc(-n2nnnc2SCC(=O)Nc2cc(C)on2)c1`, the Potency is reported as active: 11.2 µM. For `COc1ccc2cc3c(N)nn(C(=O)C4CCC(C(C)(C)C)CC4)c3nc2c1` (stereo not given), the Potency was inconclusive [inhibitor, partial curve]. `CN(C)c1ccc(/C=N/NC(=O)CN(c2ccccc2Cl)S(C)(=O)=O)cc1Br` was tested, and the Potency was inconclusive [inhibitor, single point]. `CC(C)Sc1oc(-c2ccco2)nc1S(=O)(=O)c1ccccc1` was tested, and the Potency was inconclusive [inhibitor, single point]. `O=c1[nH]c(-c2ccccn2)nc(C(F)(F)F)c1Br` was tested, and the Potency was inconclusive [inhibitor, full curve]. For `O=C(COC(=O)Cc1ccccc1F)Nc1cccc(S(=O)(=O)NC2=NCCCCC2)c1`, the “activity, negative = inhibition” value was inactive: -6.83%. For `CCOC(=O)c1nnn(-c2nonc2N)c1CN(C)Cc1ccccc1`, the Potency was inconclusive [inhibitor, partial curve]. `N/C(=N\OC(=O)C(c1ccccc1)c1ccccc1)c1ccccn1` was tested, and the Potency was inconclusive [inhibitor, single point]. `CN(C(=S)NCCN1CCOCC1)C(c1ccccc1)c1ccccc1` was tested, and the Potency was inconclusive [inhibitor, single point]. In the case of `Cc1cccc(NC(=O)Nc2cc(C)on2)c1`, the Potency is reported as inconclusive [inhibitor, single point]. For `Cc1ccc(OCCC(=O)Nc2ccc(F)c(Cl)c2)cc1`, the “activity, negative = inhibition” value was inactive: 8.66%. In the case of `Cc1c(C(=O)NCCSCc2c(F)cccc2Cl)cnn1-c1ccc(Cl)cc1`, the Potency is reported as inconclusive [inhibitor, full curve]. `COc1ccc(N2CCN(C(CNC(=O)C(=O)NCCCn3ccnc3)c3cccnc3)CC2)cc1` (stereo not given) was tested, and the “activity, negative = inhibition” value was inactive: 7.98%. `Clc1ccc(-c2nnc(-c3ccc(Br)cc3)c(N3CCSCC3)n2)cc1` was tested, and the “activity, negative = inhibition” value was inactive: -1.64%. With `Cc1ccc(Nc2nnc(SCn3nnc4ccccc4c3=O)s2)cc1` the Potency was inconclusive [inhibitor, single point]. `O=C1c2ccccc2C(=O)N1OCCOCCOCCBr` was tested, and the Potency was inconclusive [inhibitor, single point]. For `CCCCOc1ccc(C(=O)NCCc2cccs2)cc1`, the Potency was inconclusive [inhibitor, single point]. In the case of `CCCCCOc1ccc2oc(=O)c3c(c2c1)CCCN3C(=O)CN1CCCC(C(=O)OCC)C1` (stereo not given), the Potency is reported as active: 25.1 µM. In the case of `CC1(C)C(=O)C(c2ccccc2)=C2CN3C(=O)N(CCc4ccccc4)C(=O)C3(Cc3ccc(F)cc3)C=C21` (stereo not given), the “activity, negative = inhibition” value is reported as inactive: -8.35%. With `COc1ccc(C(=O)C2CCCN(C(=O)c3cccs3)C2)cc1F` (stereo not given) the Potency was inconclusive [inhibitor, single point]. With `COc1cccc2c1OCC(C(=O)OCc1cccnc1)=C2` the Potency was inconclusive [inhibitor, single point]. For `Cc1nc(SCC(=O)N2CCN(c3ccccc3)CC2)c2oc3ccccc3c2n1`, the Potency was active: 39.8 µM. With `CN(Cc1ccco1)c1nc(-c2ccccc2C(F)(F)F)nc2ccccc12` the “activity, negative = inhibition” value was inactive: 4.43%. `CCCC(=O)Nc1cc(-c2cn3cccnc3n2)ccc1OC` was tested, and the Potency was inconclusive [inhibitor, single point]. In the case of `CCOc1ccc(N2C(=O)CC(NCCc3ccncc3)C2=O)cc1` (stereo not given), the Potency is reported as inconclusive [inhibitor, single point]. `Cc1cc(OC(=O)c2ccc(S(=O)(=O)N3CCCC3)cc2)c([N+](=O)[O-])c(=O)[nH]1` was tested, and the Potency was inconclusive [inhibitor, single point]. In the case of `CCSc1nnc(NC(=O)c2ccc(C)cc2)s1`, the “activity, negative = inhibition” value is reported as inactive: -8.87%. `COc1cc(C(=O)Nc2nnc(CC(C)(C)C)s2)c([N+](=O)[O-])cc1OC` was tested, and the “activity, negative = inhibition” value was inactive: -2.23%. `CCn1c(=O)[nH]c2cc(C(=O)Nc3cc(C)cc(C)c3)ccc2c1=O` was tested, and the Potency was inconclusive [inhibitor, partial curve]. For `c1coc(-c2nn3c(-c4ccco4)nnc3s2)c1`, the Potency was active: 20 µM. For `CCOC(=O)C1=C(c2ccc(OC)cc2)C(=O)c2ccccc2C1=O`, the Potency was inconclusive [inhibitor, single point]. For `CC1=CN2C(=N)/C(=C/c3ccco3)C(=O)N=C2S1`, the Potency was active: 12.6 µM. For `CN(C)S(=O)(=O)c1ccc(C(=O)NCc2ccco2)cc1`, the Potency was inconclusive [inhibitor, single point]. In the case of `CCCCNC(=O)CNC(=S)N(Cc1ccccc1)Cc1cccs1`, the Potency is reported as inconclusive [inhibitor, single point]. For `Cc1cc(C(=O)CSc2nc3ccccc3c(=O)n2C)c(C)n1CC1CCCO1` (stereo not given), the Potency was inconclusive [inhibitor, partial curve]. For `CCOc1cc(NC(=S)NCCCN2CCOCC2)c(OCC)cc1NC(=O)c1ccc(C)cc1`, the Potency was inconclusive [inhibitor, single point]. For `O=C(COc1ccc(S(=O)(=O)N2CCCC2)cc1Cl)Nc1ccc2c(c1)OCO2`, the Potency was inconclusive [inhibitor, single point]. In the case of `CC1CCN(S(=O)(=O)c2ccc3c(c2)c(=O)c(C(=O)NCc2ccco2)cn3C)CC1`, the Potency is reported as inconclusive [inhibitor, partial curve]. `C/C(CCC12CC3CC(CC(C3)C1)C2)=N\NC(N)=S` was tested, and the Potency was inconclusive [inhibitor, full curve]. In the case of `Cc1nc(NC(=O)c2ccc(Cl)cc2)sc1-c1csc(Nc2cccc(F)c2)n1`, the Potency is reported as inconclusive [inhibitor, single point]. For `CCOC(=O)c1c(N)sc2c1CCSC2`, the Potency was active: 12.6 µM. For `COc1ccc(-c2[nH]ncc2/C=N\NC(=O)c2ccc(C(C)(C)C)cc2)cc1OC`, the Potency was inconclusive [inhibitor, partial curve]. `COc1ccc(CCNc2ccc(N3C(=O)CC(C)C3=O)cc2[N+](=O)[O-])cc1` (stereo not given) was tested, and the Potency was inconclusive [inhibitor, single point]. For `Cc1ccc(C(=O)Nc2ccc([N+](=O)[O-])cn2)o1`, the Potency was inconclusive [inhibitor, single point]. With `CCCNC(=O)COC(=O)c1ccccc1OCc1ccc(Cl)cc1` the “activity, negative = inhibition” value was inactive: -1.99%. `CCCCCC(=O)Nc1c(-c2ccc(OC)cc2)c(=O)c2ccccc2n1C` was tested, and the Potency was inconclusive [inhibitor, partial curve]. For `CC1(C)C2CCC1(C)C1(C2)NC(=O)c2ccccc2O1` (stereo not given), the “activity, negative = inhibition” value was inactive: 3.35%. For `CCN1CCCC1CNC(=O)C1CCN(C(=O)c2cc3sccc3n2Cc2ccc(F)cc2)CC1` (stereo not given), the Potency was inconclusive [inhibitor, single point]. `CC1CCCN(CC(=O)Nc2cccc([N+](=O)[O-])c2)C1` (stereo not given) was tested, and the Potency was inconclusive [inhibitor, single point].
